# Assay results: PubChem BioAssay AID651820 (National Center for Advancing Translational Sciences (NCATS), 2012)
# The campaign covered roughly 340,000 compounds. About 12,000 (3.5%) were called active. This list was built around the results that the source calls inconclusive (neither active nor inactive); the mix of calls is not that of the screen. The call rests on the fitted dose curve; in most records, active means well fitted inhibition curve with a large enough effect; inconclusive means small, poorly fitted or top-dose-only effect, or another doubt; inactive means no such curve, though single readings can be large or run the other way. Potencies of inconclusive entries are left out as doubtful fits.
# Test: qHTS Assay for Inhibitors of Hepatitis C Virus (HCV)
# Settings: Huh7.5.1 HCVcc-Cre (HCVcc is cell-culture hepatitis C virus) infection, luciferase reporter, 44 h; activity change, negative = inhibition: at 41.8 µM (top of the series) unless noted
# Method in brief: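 Luciferase read-out (15 sec integration) after a 15 min room-temperature substrate step quantifies HCVcc-Cre infection. Cells, 1,000 per well, had compound added 4 h post-plating, then virus at ~0.5 moi, and were cultured 44 h.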
# On the % scale 0 is the no-effect control and ±100 the full control effect; potency means the concentration at half of the fitted maximal effect; tags describe the fitted curve by direction and shape.
SMILES,Potency,"activity change, negative = inhibition"
O=C(COc1ccccc1C(=O)NCc1ccccc1)Nc1ccccc1,"inconclusive [inhibitor, single point]",
CCOC(=O)Cn1nc2sc3ccccc3n2c(=O)c1=O,,inactive: 15.3%
COc1ccc(OCCN2CCN(C(=O)c3ccc(OC)c(OC)c3)CC2)cc1,active: 8.91 µM,
Cc1cccc(NC(=O)Cn2nnc3ccccc32)c1,,inactive: 17.4%
Cc1ccc(C(=O)C2CCN(C(=O)c3ccc(C)cc3)CC2)cc1,"inconclusive [inhibitor, single point]",
Cc1cccc(NC(=O)Cc2ccc(F)cc2)c1,,inactive: -16%
Oc1ccccc1-c1nc(NCc2cccnc2)c2ccccc2n1,active: 5.62 µM,
CN(C)c1ccc(Nc2nc(N)c3ccccc3n2)cc1,"inconclusive [inhibitor, single point]",
CN(C)c1cccc(C(=O)N2CCCC(CCC(=O)NCc3ccccc3F)C2)c1 (configuration not stated),"inconclusive [inhibitor, partial curve]",
O=S(=O)(c1cccs1)N1CCN(Cc2cccc(F)c2)CC1,,inactive: 9.22%
CCN(CC)c1c(-c2ccccc2)c2cc(C)ccc2[nH]c1=O,"inconclusive [inhibitor, single point]",
Cc1cc2cc(CNC(=O)c3cccs3)ccc2[nH]1,"inconclusive [inhibitor, single point]",
Cc1ccc(OCC(=O)Nc2ccc3c(c2)nc(CCN2CCC(C)CC2)n3C)cc1,active: 12.6 µM,
CCNc1nc(OC)nc(N2CCC(Cc3ccccc3)CC2)n1,"inconclusive [inhibitor, partial curve]",
CCC(=O)c1ccc(OCC(O)CN2CCN(c3cccc(C(F)(F)F)c3)CC2)cc1 (configuration not stated),"inconclusive [inhibitor, single point]",
Cc1nonc1OCCNCCNc1ccc([N+](=O)[O-])c2cccnc12,"inconclusive [inhibitor, single point]",
O=S(=O)(c1ccccc1)N1CCC(n2nnc3cc(F)ccc32)CC1,,inactive: -15.5%
CC1(C)Cc2c(sc3nnn(Cc4ccc(Cl)cc4)c(=O)c23)CO1,"inconclusive [inhibitor, single point]",
CC1=C(C(=O)OCc2ccc3c(c2)OCO3)C(c2ccc(F)cc2)NC(=O)N1 (configuration not stated),"inconclusive [inhibitor, partial curve, poor fit]",
CCCCCCSc1ccc(-c2nc3ccc(C)cn3c2NC2CCCCC2)cc1,,inactive: 28.7%
COc1ccccc1NC(=O)CCc1c(C)nc2c(-c3ccc(F)cc3)c(C)nn2c1C,"inconclusive [inhibitor, full curve]",
O=C(NCCN1CCOCC1)c1ccc2c(c1)N(Cc1ccccc1)C(=O)CS2,"inconclusive [inhibitor, single point]",
Nc1ccc(Oc2cccc(Oc3ccc(N)cc3)c2)cc1,,inactive: -11.1%
CCCCC(=O)NNC(=O)N1c2ccccc2Sc2ccccc21,,inactive: 14.9%

SMILES,Potency,"activity change, negative = inhibition"
CCCN(C(=O)CCSc1ccc(F)cc1)c1c(N)n(Cc2ccccc2)c(=O)[nH]c1=O,,inactive: 7.95%
O=C(CN1c2ccccc2Sc2ccccc21)N/N=C/c1ccccc1,"inconclusive [inhibitor, single point]",
COCc1c(C(=O)OCC(=O)N2CCCC2=O)oc2ccccc12,,inactive: 5.89%
CCN1C(=O)[C@H]2[C@@H](c3ccc(-c4cccc(Cl)c4)c(OC)c3)N[C@@](CC(C)C)(C(=O)OC)[C@H]2C1=O,"inconclusive [inhibitor, partial curve]",
Cc1ccc2nc(SCC(=O)Nc3ccc4sc(C)nc4c3)c(C#N)cc2c1,"inconclusive [inhibitor, partial curve]",
CCN(CC)CCCN1C(=O)CSC1c1ccc2c(c1)OCO2 (configuration not stated),,inactive: -18.4%
c1ccc(-c2nc(NCc3ccco3)c3ccccc3n2)cc1,active: 10 µM,
Cc1cc(Cl)c(S(=O)(=O)NC2CCCC2)cc1OCC(=O)NC1CCCCC1,active: 7.08 µM,
CC(C)Cn1c(N)c(C(=O)COC(=O)c2nccnc2N)c(=O)n(C)c1=O,,inactive: -16.4%
COc1ccc([N+](=O)[O-])cc1NC(=O)CSc1ccc2ccccc2c1,"inconclusive [inhibitor, partial curve]",
O=C(Nc1ccc(-c2nc3ccccc3o2)cc1)c1ccc(N2C(=O)C3C4C=CC(C4)C3C2=O)cc1 (configuration not stated),active: 3.98 µM,
N#Cc1c(-c2ccncc2)c2c([nH]c1=S)CCCC2,"inconclusive [inhibitor, single point]",
O=C(COC(=O)CNC(=O)c1ccc2c(c1)OCO2)Nc1ncc(Cl)cc1Cl,,inactive: 11.7%
CC(Oc1ccc(Br)cc1)C(=O)O/N=C(\N)c1ccncc1 (configuration not stated),"inconclusive [inhibitor, partial curve]",
Cc1c(NS(=O)(=O)c2ccc(C(=O)N(C)Cc3cccc(Cl)c3Cl)cc2)c(=O)n(-c2ccccc2)n1C,"inconclusive [inhibitor, single point]",
O=C(CCN1C(=O)/C(=C\c2cccs2)SC1=S)Nc1ccccn1,"inconclusive [inhibitor, partial curve]",
CCCN1CCc2c(sc(NC(=O)c3ccc(S(=O)(=O)N(C)c4ccccc4)cc3)c2C(N)=O)C1,"inconclusive [inhibitor, partial curve]",
CCC(C)C(=O)Nc1nc(C)c(-c2csc(Nc3ccc(Cl)cc3)n2)s1 (configuration not stated),,inactive: -25.1%
CC(O)CNc1nc2c(c(=O)n(C)c(=O)n2C)n1Cc1cccc(C(F)(F)F)c1 (configuration not stated),"inconclusive [inhibitor, single point]",
O=C(CS(=O)c1ccc(F)cc1)Nc1ccccc1Cl (configuration not stated),,inactive: 11.7%
CCCCn1c(N)c(N(CCOC)C(=O)CCC2CCCCC2)c(=O)[nH]c1=O,"inconclusive [inhibitor, single point]",
COc1ccc(NS(=O)(=O)c2ccc(NC(=S)NC(=O)c3ccc(Br)cc3)cc2)nn1,,inactive: 5.37%
COc1cc2c(cc1OC)C(c1cccs1)N(C(=O)c1cccc(S(=O)(=O)N(C)C)c1)CC2 (configuration not stated),"inconclusive [inhibitor, full curve, poor fit]",
